B1: TEV protease; numbered along this chain (parent)
chain: MGESLFKGPRDYNPISSSICHLTNESDGHTTSLYGIGFGPFIITNKHLFRRNNGTLVVQSLHGVFKVKDTTTLQQHLVDGRDMIIIRMPKDFPPFPQKLKFREPQREERICLVTTNFQTKSMSSMVSDTSCTFPSGDGIFWKHWIQTKDGQCGSPLVSTRDGFIVGIHSASNFTNTNNYFTSVPKNFMELLTNQEAQQWVSGWRLNADSVLWGGHKVFMVKPEEPFQPVKEATQL

Variants of B1 are the subject of the test. Description: raw area under fraction-flipped curve 0-4 h after induction (AUC4h, not background-subtracted), DNA-recorder readout of cleavage of the substrate (dimensionless); higher = more cleavage of the substrate by the protease variant. The note with it: temperature: 34 °C; time window: 0-4 h after rhamnose induction. How it is done:
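In vivo DNA recorder in E. coli TOP10(DE3) ΔrhaA at 34 °C. Each TEVp single-site mutant (parent TEVp 0) is paired with a single-site variant of the 7-mer TEVs (canonical ENLYFQ|S). The substrate sits between flexible linkers in a Bxb1-sfGFP-TEVs-SsrA fusion, so cleavage stabilises Bxb1 and speeds flipping of a recombination array, read by NGS. The value is the raw area under the fraction-flipped curve over 0-4 h after rhamnose induction (AUC4h), with ≥20 reads per time point. It is not background-subtracted; inactive controls average about 0.047.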

This is one part of the list. Sequences were assembled here from the parent chain. Inactive controls read about 0.05.
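Also: Bxb1 expression induced with 0.2% (w/v) L-rhamnose at OD600 near 0.5, cultures sampled hourly, flipped fraction per protease–substrate barcode pair counted by paired-end Illumina sequencing.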

Turning to MGESLFKGPRDYNPISSSICHLTNESDGHTTSLYGIGFGPFIITNKHLFRRNNGTLVVQSLHGVFKVKDTTTLQQHLVDGRDMIIIRMPKDFPPFPQKLKFREPQREERICLVTTNFQTKSMSSMVSDTSCTFPSGDGIFWKHWIQTKDGQCGSPLVSTRDGFIVGIHSASNFTNTNNYFTSVPKNFMELLTNQEAQQWVSGWRLNADSVLWGGHKVFMWKPEEPFQPVKEATQL [V220W], the “area with substrate ENLYAQS” value was 0.0692, the “area with substrate ENLYDQS” value turned out to be 0.0537, the “area with substrate ENLYEQS” value was found to be 0.0751 and the “area with substrate ENLYGQS” value was 0.0621. Also, the “area with substrate ENLYHQS” value turned out to be 0.0642, the “area with substrate ENLYIQS” value was 0.123, the “area with substrate ENLYKQS” value was 0.0641 and the “area with substrate ENLYMQS” value was 0.0674. For the same variant, the “area with substrate ENLYNQS” value was 0.0571, the “area with substrate ENLYPQS” value worked out at 0.0619, the “area with substrate ENLYRQS” value amounted to 0.0618 and the “area with substrate ENLYSQS” value came out at 0.0695. In addition, the “area with substrate ENLYTQS” value amounted to 0.0668, the “area with substrate ENLYVQS” value worked out at 0.096 and the “area with substrate ENLYYQS” value is 0.0444.

On to MGESLFKGPRDYNPISSSICHLTNESDGHTTSLYGIGFGPFIITNKHLFRRNNGTLVVQSLHGVFKVKDTTTLQQHLVDGRDMIIIRMPKDFPPFPQKLKFREPQREERICLVTTNFQTKSMSSMVSDTSCTFPSGDGIFWKHWIQTKDGQCGSPLVSTRDGFIVGIHSASNFTNTNNYFTSVPKNFMELLTNQEAQQWVSGWRLNADSVLWGGHKVFMMKPEEPFQPVKEATQL [V220M], for which the “area with substrate ENLYAQS” value worked out at 0.0826, the “area with substrate ENLYCQS” value stood at 0.076, the “area with substrate ENLYDQS” value turned out to be 0.0625 and the “area with substrate ENLYEQS” value was 0.0586. Also, the “area with substrate ENLYGQS” value worked out at 0.0714, the “area with substrate ENLYHQS” value worked out at 0.0779, the “area with substrate ENLYIQS” value was found to be 0.123 and the “area with substrate ENLYMQS” value was found to be 0.0701. Also, the “area with substrate ENLYNQS” value came out at 0.0517, the “area with substrate ENLYPQS” value was found to be 0.0752, the “area with substrate ENLYQQS” value turned out to be 0.0548 and the “area with substrate ENLYRQS” value stood at 0.0582. The “area with substrate ENLYSQS” value was determined as 0.0756, the “area with substrate ENLYVQS” value turned out to be 0.141, the “area with substrate ENLYWQS” value came out at 0.0668 and the “area with substrate ENLYYQS” value is 0.0585.

As to MGESLFKGPRDYNPISSSICHLTNESDGHTTSLYGIGFGPFIITNKHLFRRNNGTLVVQSLHGVFKVKDTTTLQQHLVDGRDMIIIRMPKDFPPFPQKLKFREPQREERICLVTTNFQTKSMSSMVSDTSCTFPSGDGIFWKHWIQTKDGQCGSPLVSTRDGFIVGIHSASNFTNTNNYFTSVPKNFMELLTNQEAQQWVSGWRLNADSVLWGGHKCFMVKPEEPFQPVKEATQL [V217C], the “area with substrate ENLYAQS” value amounted to 0.0765, the “area with substrate ENLYCQS” value was found to be 0.0753, the “area with substrate ENLYDQS” value was 0.0621 and the “area with substrate ENLYEQS” value worked out at 0.0643. Moreover, the “area with substrate ENLYGQS” value was found to be 0.073, the “area with substrate ENLYHQS” value worked out at 0.0557, the “area with substrate ENLYIQS” value came to 0.0982 and the “area with substrate ENLYKQS” value worked out at 0.0458. For the same variant, the “area with substrate ENLYMQS” value was determined as 0.0639, the “area with substrate ENLYNQS” value came out at 0.0605, the “area with substrate ENLYPQS” value is 0.0635 and the “area with substrate ENLYQQS” value came out at 0.06. The “area with substrate ENLYRQS” value is 0.0658, the “area with substrate ENLYSQS” value came out at 0.0766, the “area with substrate ENLYTQS” value was determined as 0.0947 and the “area with substrate ENLYVQS” value amounted to 0.0991. Besides, the “area with substrate ENLYWQS” value was 0.0662.

Regarding MGESLFKGPRDYNPISSSICHLTNESDGHTTSLYGIGFGPFIITNKHLFRRNNGTLVVQSLHGVFKVKDTTTLQQHLVDGRDMIIIRMPKDFPPFPQKLKFREPQREERICLVTTNFQTKSMSSMVSDTSCTFPSGDGIFWKHWIQTKDGQCGSPLVSTRDGFIVGIHSASNFTNTNNYFTSVPKNFMELLTNQEAQQWVSGWRLNADSVLWGGHKPFMVKPEEPFQPVKEATQL [V217P], the “area with substrate ENLYAQS” value came out at 0.0583, the “area with substrate ENLYDQS” value was 0.0705, the “area with substrate ENLYEQS” value was 0.0646 and the “area with substrate ENLYGQS” value is 0.0585. The “area with substrate ENLYHQS” value came to 0.0638, the “area with substrate ENLYIQS” value is 0.0807, the “area with substrate ENLYMQS” value came out at 0.0546 and the “area with substrate ENLYNQS” value worked out at 0.0615. The “area with substrate ENLYPQS” value was 0.0694, the “area with substrate ENLYQQS” value amounted to 0.0603, the “area with substrate ENLYRQS” value was determined as 0.0583 and the “area with substrate ENLYSQS” value was found to be 0.0804. In addition, the “area with substrate ENLYTQS” value was 0.0556, the “area with substrate ENLYVQS” value was determined as 0.0615, the “area with substrate ENLYWQS” value amounted to 0.0587 and the “area with substrate ENLYYQS” value turned out to be 0.0586.

As for MGESLFKGPRDYNPISSSICHLTNESDGHTTSLYGIGFGPFIITNKHLFRRNNGTLVVQSLHGVFKVKDTTTLQQHLVDGRDMIIIRMPKDFPPFPQKLKFREPQREERICLVTTNFQTKSMSSMVSDTSCTFPSGDGIFWKHWIQTKDGQCGSPLVSTRDGFIVGIHSASNFTNTNNYFTSVPKNFMELLTNQEAQQWVSGWRLNADSVLWGGHKVFMVKPKEPFQPVKEATQL [E223K], the “area with substrate ENLYAQS” value was 0.0899, the “area with substrate ENLYDQS” value was 0.0673, the “area with substrate ENLYEQS” value worked out at 0.0601 and the “area with substrate ENLYGQS” value amounted to 0.0708. For the same variant, the “area with substrate ENLYHQS” value was 0.0691, the “area with substrate ENLYIQS” value came to 0.107, the “area with substrate ENLYKQS” value stood at 0.0515 and the “area with substrate ENLYLQS” value turned out to be 0.1. Further, the “area with substrate ENLYMQS” value is 0.0807, the “area with substrate ENLYNQS” value was 0.0767, the “area with substrate ENLYPQS” value was determined as 0.0652 and the “area with substrate ENLYQQS” value came out at 0.0675. Besides, the “area with substrate ENLYRQS” value was 0.0655, the “area with substrate ENLYSQS” value was found to be 0.0676, the “area with substrate ENLYTQS” value came out at 0.0711 and the “area with substrate ENLYVQS” value stood at 0.135. Also, the “area with substrate ENLYWQS” value worked out at 0.0844 and the “area with substrate ENLYYQS” value worked out at 0.0514.

MGESLFKGPRDYNPISSSICHLTNESDGHTTSLYGIGFGPFIITNKHLFRRNNGTLVVQSLHGVFKVKDTTTLQQHLVDGRDMIIIRMPKDFPPFPQKLKFREPQREERICLVTTNFQTKSMSSMVSDTSCTFPSGDGIFWKHWIQTKDGQCGSPLVSTRDGFIVGIHSASNFTNTNNYFTSVPKNFMELLTNQEAQQWVSGWRLNADSVLWGGHKVFSVKPEEPFQPVKEATQL [M219S]: the “area with substrate ENLYAQS” value came to 0.0746, the “area with substrate ENLYDQS” value was 0.0636, the “area with substrate ENLYEQS” value was 0.072 and the “area with substrate ENLYGQS” value was determined as 0.063. Besides, the “area with substrate ENLYHQS” value was determined as 0.0693, the “area with substrate ENLYIQS” value was 0.0607, the “area with substrate ENLYKQS” value was 0.0719 and the “area with substrate ENLYLQS” value came to 0.0779. Also, the “area with substrate ENLYMQS” value came out at 0.0795, the “area with substrate ENLYNQS” value was 0.0632, the “area with substrate ENLYPQS” value came to 0.0664 and the “area with substrate ENLYSQS” value was 0.0563. Moreover, the “area with substrate ENLYVQS” value was found to be 0.0806 and the “area with substrate ENLYWQS” value is 0.0908.

For the variant MGESLFKGPRDYNPISSSICHLTNESDGHTTSLYGIGFGPFIITNKHLFRRNNGTLVVQSLHGVFKVKDTTTLQQHLVDGRDMIIIRMPKDFPPFPQKLKFREPQREERICLVTTNFQTKSMSSMVSDTSCTFPSGDGIFWKHWIQTKDGQCGSPLVSTRDGFIVGIHSASNFTNTNNYFTSVPKNFMELLTNQEAQQWVSGWRLNADSVLWGGHKVFMVFPEEPFQPVKEATQL [K221F], the “area with substrate ENLYAQS” value was determined as 0.0773, the “area with substrate ENLYCQS” value is 0.113, the “area with substrate ENLYEQS” value worked out at 0.0527 and the “area with substrate ENLYGQS” value came to 0.0632. Besides, the “area with substrate ENLYHQS” value is 0.0583, the “area with substrate ENLYIQS” value is 0.0979, the “area with substrate ENLYKQS” value was 0.0594 and the “area with substrate ENLYMQS” value was determined as 0.0705. For the same variant, the “area with substrate ENLYNQS” value turned out to be 0.0673, the “area with substrate ENLYPQS” value came out at 0.085, the “area with substrate ENLYQQS” value amounted to 0.0546 and the “area with substrate ENLYRQS” value worked out at 0.0423. In addition, the “area with substrate ENLYSQS” value amounted to 0.0606, the “area with substrate ENLYTQS” value was 0.0735, the “area with substrate ENLYVQS” value amounted to 0.101 and the “area with substrate ENLYWQS” value came out at 0.0651. Also, the “area with substrate ENLYYQS” value worked out at 0.0664.

In the case of MGESLFKGPRDYNPISSSICHLTNESDGHTTSLYGIGFGPFIITNKHLFRRNNGTLVVQSLHGVFKVKDTTTLQQHLVDGRDMIIIRMPKDFPPFPQKLKFREPQREERICLVTTNFQTKSMSSMVSDTSCTFPSGDGIFWKHWIQTKDGQCGSPLVSTRDGFIVGIHSASNFTNTNNYFTSVPKNFMELLTNQEAQQWVSGWRLNADSVLWGGHKVFMVKDEEPFQPVKEATQL [P222D], the “area with substrate ENLYAQS” value is 0.0764, the “area with substrate ENLYCQS” value was determined as 0.126, the “area with substrate ENLYDQS” value came to 0.0805 and the “area with substrate ENLYEQS” value worked out at 0.0605. In addition, the “area with substrate ENLYGQS” value was 0.0551, the “area with substrate ENLYHQS” value was 0.0633, the “area with substrate ENLYIQS” value was found to be 0.126 and the “area with substrate ENLYKQS” value came out at 0.0529. The “area with substrate ENLYMQS” value is 0.0741, the “area with substrate ENLYNQS” value was found to be 0.0694, the “area with substrate ENLYRQS” value worked out at 0.0557 and the “area with substrate ENLYTQS” value was 0.0666. Besides, the “area with substrate ENLYVQS” value was found to be 0.114, the “area with substrate ENLYWQS” value came to 0.071 and the “area with substrate ENLYYQS” value was 0.0563.

Regarding MGESLFKGPRDYNPISSSICHLTNESDGHTTSLYGIGFGPFIITNKHLFRRNNGTLVVQSLHGVFKVKDTTTLQQHLVDGRDMIIIRMPKDFPPFPQKLKFREPQREERICLVTTNFQTKSMSSMVSDTSCTFPSGDGIFWKHWIQTKDGQCGSPLVSTRDGFIVGIHSASNFTNTNNYFTSVPKNFMELLTNQEAQQWVSGWRLNADSVLWGGHKVFMVKFEEPFQPVKEATQL [P222F], the “area with substrate ENLYAQS” value was 0.0752, the “area with substrate ENLYDQS” value stood at 0.0571, the “area with substrate ENLYEQS” value amounted to 0.0554 and the “area with substrate ENLYGQS” value was determined as 0.0537. In addition, the “area with substrate ENLYHQS” value stood at 0.0621, the “area with substrate ENLYIQS” value is 0.0855, the “area with substrate ENLYKQS” value stood at 0.064 and the “area with substrate ENLYLQS” value turned out to be 0.0562. Further, the “area with substrate ENLYNQS” value was 0.0623, the “area with substrate ENLYPQS” value was found to be 0.0661, the “area with substrate ENLYQQS” value is 0.0507 and the “area with substrate ENLYRQS” value was 0.0707. Also, the “area with substrate ENLYTQS” value worked out at 0.0849 and the “area with substrate ENLYWQS” value amounted to 0.0592.
